# Assay results published in the supplement of paper PMC8728848.
# The list shows a part of the results.
# Assays:
# Test in all cases: glycan array binding signal (z-score within array); higher = stronger binding
# Conditions in all cases: glycan notation: IUPAC condensed, linker removed
# [1] = molecular target: Neu5Ac(a2-6)Gal(b1-4)GlcNAc(b1-3)Gal(b1-4)GlcNAc(b1-3)Gal(b1-4)GlcNAc(b1-2)Man(a1-3)[Neu5Ac(a2-6)Gal(b1-4)GlcNAc(b1-3)Gal(b1-4)GlcNAc(b1-3)Gal(b1-4)GlcNAc(b1-2)Man(a1-6)]GalNAc
# In short: (§1)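 Negative Z-scores can be read as non-binding. The Z-score is calculated within each array and then averaged across arrays of one protein sequence at different concentrations or buffers and across linkers. Arrays, 3228 in all, were curated from the Consortium for Functional Glycomics database and kept only where the protein sequence was available.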
# [2] = molecular target: Neu5Ac(a2-6)Gal(b1-4)GlcNAc(b1-3)Gal(b1-4)GlcNAc(b1-3)GalNAc
# In short: as §1
# [3] = molecular target: Neu5Ac(a2-6)Gal(b1-4)GlcNAc(b1-3)Gal(b1-4)GlcNAc(b1-3)[Neu5Ac(a2-6)Gal(b1-4)GlcNAc(b1-3)Gal(b1-4)GlcNAc(b1-6)]GalNAc
# In short: as §1
# [4] = molecular target: Neu5Ac(a2-6)Gal(b1-4)GlcNAc(b1-3)Gal(b1-4)GlcNAc(b1-6)[Gal(b1-3)]GalNAc
# In short: as §1
# [5] = molecular target: Neu5Ac(a2-6)Gal(b1-4)GlcNAc(b1-3)Gal(b1-4)[Fuc(a1-3)]GlcNAc(b1-3)Gal(b1-4)[Fuc(a1-3)]GlcNAc
# In short: as §1
# [6] = molecular target: Neu5Ac(a2-6)Gal(b1-4)GlcNAc(b1-3)GalNAc
# In short: as §1
# [7] = molecular target: Neu5Ac(a2-6)Gal(b1-4)GlcNAc(b1-3)[Neu5Ac(a2-6)Gal(b1-4)GlcNAc(b1-6)]GalNAc
# In short: as §1
# [8] = molecular target: Neu5Ac(a2-6)Gal(b1-4)GlcNAc(b1-6)GalNAc
# In short: as §1
# [9] = molecular target: Neu5Ac(a2-6)Gal(b1-4)GlcNAc(b1-6)[Gal(b1-3)GlcNAc(b1-3)]Gal(b1-4)Glc
# In short: as §1
# [10] = molecular target: Neu5Ac(a2-6)Gal(b1-4)GlcNAc(b1-6)[Gal(b1-3)]GalNAc
# In short: as §1
# [11] = molecular target: Neu5Ac(a2-6)Gal(b1-4)GlcNAc6S
# In short: as §1
# [12] = molecular target: Neu5Ac(a2-6)GalNAc
# In short: as §1
# [13] = molecular target: Neu5Ac(a2-6)GalNAc(b1-4)GlcNAc
# In short: as §1
# [14] = molecular target: Neu5Ac(a2-6)GalNAc(b1-4)GlcNAc6S
# In short: as §1
# [15] = molecular target: Neu5Ac(a2-6)GlcNAc(b1-4)GlcNAc
# In short: as §1
# [16] = molecular target: Neu5Ac(a2-6)GlcNAc(b1-4)GlcNAc(b1-4)GlcNAc
# In short: as §1
# [17] = molecular target: Neu5Ac(a2-8)Neu5Ac
# In short: as §1
# [18] = molecular target: Neu5Ac(a2-8)Neu5Ac(a2-3)Gal(b1-3)GalNAc(b1-4)[Neu5Ac(a2-3)]Gal(b1-4)Glc
# In short: as §1
# [19] = molecular target: Neu5Ac(a2-8)Neu5Ac(a2-3)Gal(b1-3)GalNAc(b1-4)[Neu5Ac(a2-8)Neu5Ac(a2-3)]Gal(b1-4)Glc
# In short: as §1
# [20] = molecular target: Neu5Ac(a2-8)Neu5Ac(a2-3)Gal(b1-4)Glc
# In short: as §1
# [21] = molecular target: Neu5Ac(a2-8)Neu5Ac(a2-3)Gal(b1-4)GlcNAc
# In short: as §1
# [22] = molecular target: Neu5Ac(a2-8)Neu5Ac(a2-3)[Gal(b1-3)GalNAc(b1-4)]Gal(b1-4)Glc
# In short: as §1
# [23] = molecular target: Neu5Ac(a2-8)Neu5Ac(a2-3)[GalNAc(b1-4)]Gal(b1-4)Glc
# In short: as §1
# [24] = molecular target: Neu5Ac(a2-8)Neu5Ac(a2-8)Neu5Ac
# In short: as §1
# [25] = molecular target: Neu5Ac(a2-8)Neu5Ac(a2-8)Neu5Ac(a2-3)Gal(b1-4)Glc
# In short: as §1
# [26] = molecular target: Neu5Ac(a2-8)Neu5Ac(a2-8)Neu5Ac(a2-3)[Gal(b1-3)GalNAc(b1-4)]Gal(b1-4)Glc
# In short: as §1
# [27] = molecular target: Neu5Ac(a2-8)Neu5Ac(a2-8)Neu5Ac(a2-3)[GalNAc(b1-4)]Gal(b1-4)Glc
# In short: as §1
# [28] = molecular target: Neu5Ac(a2-8)Neu5Ac(a2-8)Neu5Ac(a2-8)Neu5Ac(a2-3)[GalNAc(b1-4)]Gal(b1-4)Glc
# In short: as §1
# [29] = molecular target: Neu5Ac(a2-8)Neu5Gc(a2-3)Gal(b1-4)GlcNAc
# In short: as §1
# [30] = molecular target: Neu5Ac(b2-6)Gal(b1-4)GlcNAc
# In short: as §1
# [31] = molecular target: Neu5Ac(b2-6)GalNAc
# In short: as §1
# [32] = molecular target: Neu5Ac9Ac(a2-3)Gal(b1-3)GlcNAc
# In short: as §1
# [33] = molecular target: Neu5Ac9Ac(a2-3)Gal(b1-4)GlcNAc
# In short: as §1
# [34] = molecular target: Neu5Ac9Ac(a2-6)Gal(b1-4)GlcNAc
# In short: as §1
# [35] = molecular target: Neu5Gc(a2-3)Gal(b1-3)GlcNAc
# In short: as §1
# [36] = molecular target: Neu5Gc(a2-3)Gal(b1-3)[Fuc(a1-4)]GlcNAc
# In short: as §1
# [37] = molecular target: Neu5Gc(a2-3)Gal(b1-4)Glc
# In short: as §1
# [38] = molecular target: Neu5Gc(a2-3)Gal(b1-4)GlcNAc
# In short: as §1
# [39] = molecular target: Neu5Gc(a2-3)Gal(b1-4)GlcNAc(b1-3)Gal(b1-4)GlcNAc(b1-2)Man(a1-3)[Neu5Gc(a2-3)Gal(b1-4)GlcNAc(b1-3)Gal(b1-4)GlcNAc(b1-2)Man(a1-6)]Man(b1-4)GlcNAc(b1-4)GlcNAc
# In short: as §1
# [40] = molecular target: Neu5Gc(a2-3)Gal(b1-4)[Fuc(a1-3)]GlcNAc
# In short: as §1
# [41] = molecular target: Neu5Gc(a2-6)Gal(b1-4)GlcNAc
# In short: as §1
# [42] = molecular target: Neu5Gc(a2-6)GalNAc
# In short: as §1
# [43] = molecular target: Neu5Gc(a2-8)Neu5Ac(a2-3)Gal(b1-4)GlcNAc
# In short: as §1
# [44] = molecular target: Neu5Gc(a2-8)Neu5Gc(a2-3)Gal(b1-4)GlcNAc
# In short: as §1
# [45] = molecular target: Neu5Gc(a2-8)Neu5Gc(a2-3)Gal(b1-4)GlcNAc(b1-3)Gal(b1-4)GlcNAc
# In short: as §1
binder,measurement,setting,value
PLU (Photorhabdus luminiscence) (protein) HHHHHHENLYFQSSIVFASIDPRSNPLQTSSQNYVDIPGLKLDVSKYSNSPCLTALITLNIPTPYASGNNFPGGNFAIVTDQGEQLAYGGFTYSSKIPENSGRMPFTLVARYSLASNVSTIKAQWSNIRGSTVHIDSYASISAVIQCNQLV,glycan array binding signal (z-score),[1],-0.162
same,glycan array binding signal (z-score),[2],-0.258
same,glycan array binding signal (z-score),[3],-0.12
same,glycan array binding signal (z-score),[4],-0.27
same,glycan array binding signal (z-score),[5],-0.212
same,glycan array binding signal (z-score),[6],-0.291
same,glycan array binding signal (z-score),[7],-0.278
same,glycan array binding signal (z-score),[8],-0.292
same,glycan array binding signal (z-score),[9],-0.335
same,glycan array binding signal (z-score),[10],-0.123
same,glycan array binding signal (z-score),[11],-0.322
same,glycan array binding signal (z-score),[12],-0.336
same,glycan array binding signal (z-score),[13],-0.203
same,glycan array binding signal (z-score),[14],-0.252
same,glycan array binding signal (z-score),[15],-0.295
same,glycan array binding signal (z-score),[16],-0.12
same,glycan array binding signal (z-score),[17],-0.287
same,glycan array binding signal (z-score),[18],-0.28
same,glycan array binding signal (z-score),[19],-0.228
same,glycan array binding signal (z-score),[20],-0.288
same,glycan array binding signal (z-score),[21],-0.232
same,glycan array binding signal (z-score),[22],-0.253
same,glycan array binding signal (z-score),[23],-0.242
same,glycan array binding signal (z-score),[24],-0.288
same,glycan array binding signal (z-score),[25],-0.267
same,glycan array binding signal (z-score),[26],-0.236
same,glycan array binding signal (z-score),[27],-0.227
same,glycan array binding signal (z-score),[28],-0.214
same,glycan array binding signal (z-score),[29],-0.399
same,glycan array binding signal (z-score),[30],-0.266
same,glycan array binding signal (z-score),[31],-0.346
same,glycan array binding signal (z-score),[32],-0.404
same,glycan array binding signal (z-score),[33],-0.263
same,glycan array binding signal (z-score),[34],-0.249
same,glycan array binding signal (z-score),[35],-0.325
same,glycan array binding signal (z-score),[36],-0.32
same,glycan array binding signal (z-score),[37],-0.166
same,glycan array binding signal (z-score),[38],-0.219
same,glycan array binding signal (z-score),[39],-0.221
same,glycan array binding signal (z-score),[40],-0.228
same,glycan array binding signal (z-score),[41],-0.228
same,glycan array binding signal (z-score),[42],-0.326
same,glycan array binding signal (z-score),[43],-0.285
same,glycan array binding signal (z-score),[44],-0.333
same,glycan array binding signal (z-score),[45],-0.32
